Assay results: PubChem BioAssay AID1347416 (National Center for Advancing Translational Sciences (NCATS), 2020)
Among all 4,100 compounds or so, about 1,600 (39%) were called active. Inconclusive means that the source gave no clear call. Such entries were picked first, then a sample of the others. The call rests on the fitted dose curve; in most records, active means well fitted inhibition curve with a large enough effect; inconclusive means small, poorly fitted or top-dose-only effect; inactive means no such curve, though single readings can be large or run the other way. A potency beside an inconclusive call is a rough fit, not a confirmed value.

Assay: qHTS Validation assay for Inhibitors of Plasmodium falciparum Dd2 growth in vitro; further: nearly all actives have a fitted effect of over 70% in size
Conditions: P. falciparum Dd2 in RBCs, SYBR Green growth, 72 h; series mostly up to 28.7 µM
Outline: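 P. falciparum Dd2-infected red blood cells (2.5% hematocrit, 0.3% parasitemia) grown 72 h at 37 °C under 5% O2 with compounds in a titration, 29 uM to 0.5 nM final. Growth read as SYBR Green-1 fluorescence after ~16 h lysis; artesunate 300 nM as positive control.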
Potency means the concentration at half of the fitted maximal effect; tags describe the fitted curve by direction and shape.

Potency, inconclusive:
COCC1CN(Cc2cccc(C(F)(F)F)c2)CC12CCNCC2 (centres undefined) 7.5 µM [inhibitor, partial curve]
N#Cc1ccc(-c2csc(NNC(=O)c3ccc(Br)cc3)n2)cc1 2.11 µM [inhibitor, full curve, poor fit]
Clc1ccc2c(N/N=C/c3ccc(Br)cc3)ccnc2c1 5.31 µM [inhibitor, partial curve, poor fit]
COc1ccc(CN2COc3ccc4c(-c5ccccc5)cc(=O)oc4c3C2)cc1 2.99 µM [inhibitor, full curve, poor fit]
COc1cccc(CN2CCCC(Cc3ncc(C)n3Cc3ccccc3)C2)c1OC (centres undefined) 15 µM [inhibitor, partial curve, poor fit]
COCCCn1c(C)cnc1C1CCN(Cc2ccc(F)cc2F)C1 (centres undefined) 21.1 µM [inhibitor, single point]
CCC1Oc2ccc(NC(=O)Cc3cccs3)cc2CN(C2CCCc3ccccc32)C1=O (centres undefined) 21.1 µM [inhibitor, single point]
CN(C)C(C(=O)N1CCC(F)(F)CC1)c1ccccc1F (centres undefined) 15 µM [inhibitor, partial curve]
COCC(=O)N[C@H]1C[C@@H](Cc2cc(-c3ccc(OC)cc3)on2)C1(C)C 8.63 µM [inhibitor, partial curve, poor fit]
CC1=C[C@@H](CN2CCN(c3ccccn3)CC2)[C@H](C(C)C)C[C@H]1Cc1nnc(C)o1 19.3 µM [inhibitor, single point]
CC(=O)/C=C/c1ccc2ccccc2n1 13.3 µM [inhibitor, partial curve, poor fit]
CC1=CC(C)(C)Nc2ccc(OC(=O)c3cccnc3)cc21 13.3 µM [inhibitor, partial curve]
COc1ccc(OCCn2c(N)nc3ccccc32)cc1 13.3 µM [inhibitor, single point]
CCCCC(=O)NC(c1ccc(Cl)cc1Cl)c1ccc2cccnc2c1O (centres undefined) 15 µM [inhibitor, single point]
CN(C)c1ccc(NC(=O)c2ccc3c(c2)N(C)C2CCCCN2C3=O)cc1 (centres undefined) 16.8 µM [inhibitor, single point]
O=C(CCl)Nc1ccc(Oc2cnc3ccccc3n2)cc1 3.35 µM [inhibitor, full curve]
Clc1ncnc2scc(-c3ccc(Br)cc3)c12 6.68 µM [inhibitor, partial curve, poor fit]
CCc1ccc(Nc2cc(C)nc3nc(C)nn23)cc1 10.6 µM [inhibitor, partial curve, poor fit]
Cc1ccccc1N(C)C1CN(Cc2ccccc2)C1 19.3 µM [inhibitor, partial curve]
Cc1cc(C)c2nc(Nc3nc(-c4ccccc4)cc(=O)[nH]3)nc(C)c2c1 16.8 µM [inhibitor, single point]
O=c1/c(=C/c2ccco2)sc2n1CN(c1cccc(Br)c1)CN=2 9.44 µM [inhibitor, partial curve]
O=C(c1cccc(OC2CN(Cc3cccc(F)c3F)C2)c1)N1CCOCC1 18.8 µM [inhibitor, single point]
CCc1noc(-c2ccn3c(CNC(=O)Cc4ccccc4Cl)nnc3c2)n1 21.1 µM [inhibitor, single point]
CCn1c(=O)c(=O)n(CC)c2cc(N3CCCCC3)c(NC(=O)c3ccccc3OC)cc21 21.1 µM [inhibitor, single point]
CCc1nc(-c2c3n(c(=O)n(Cc4cccc(F)c4)c2=O)CCCC3)no1 21.1 µM [inhibitor, partial curve, poor fit]
COCC1CN(C)CC12CCN(S(=O)(=O)c1ccc(F)c(Cl)c1)CC2 (centres undefined) 13.3 µM [inhibitor, partial curve]
CSc1ccc(-c2nc3cccc(C)n3c2Nc2ccc(Cl)cc2)cc1 21.1 µM [inhibitor, single point]
COc1ccc(OC)c(NC(=O)c2cc3c(N4CCSCC4)nc(C)cn3n2)c1 16.8 µM [inhibitor, single point]
CC1(COCC2CC2)COc2ccc(C(=O)N3CCOCC3c3cccc(F)c3)cc2N1 (centres undefined) 34.4 µM [inhibitor, single point]
Cn1cccc1CN1CCC2(CC1)Cc1ccccc1NC2=O 15.3 µM [inhibitor, partial curve, poor fit]
COc1ccc(CNCc2ccc(C)s2)cc1OCC(O)CN1CCCCC1 (centres undefined) 9.44 µM [inhibitor, partial curve]
CCCC1=[N+](CC(=O)c2ccccc2)CCn2c(C)ccc21 15 µM [inhibitor, partial curve]
COc1cc(OC)cc(-c2c(C#Cc3ccsc3)c3cc(-c4ccc(C(N)=O)cc4)ccc3n2C)c1 4.22 µM [inhibitor, partial curve, poor fit]
c1ccc(Sc2cccc3ccccc23)c(CNC2=NCCN2)c1 13.3 µM [inhibitor, partial curve]

Potency, inactive:
CCOCCCNC(=O)CN1C(=O)c2c(c3ccccc3n2C)C1c1ccc(OC)cc1 (centres undefined)
O=c1[nH]c(N2CCOCC2)nc2c1CCN(Cc1cccc(C(F)(F)F)c1)CC2
CC(Oc1ccccc1)C(=O)NC1CCN(c2cc(C(F)(F)F)ncn2)CC1 (centres undefined)
O=C(Nc1ccc(CN2CCOCC2)cc1)c1ccc(-c2ccc(Br)cc2)o1
CCc1noc(-c2cccn3c(CNC(=O)Cc4ccc(Cl)cc4)nnc23)n1
COC(CSc1nc(N)c2c3c(sc2n1)CN(C)CC3)OC
CCOc1ccc(N2C(N)=NC(N)=NC2(C)C)cc1
COc1cccc(NC(=O)CCSc2nc(-c3ccco3)cc(C(F)(F)F)n2)c1
CCn1ccc2sc(C)c(C(=O)N3CCC(Cc4ccccc4)CC3)c2c1=O
CC(C)c1cccc(NC(=O)c2ccc(CN3C(=O)NC4(CCOCC4)C3=O)cc2)c1
COc1ccccc1NC(=O)c1nn(C)c2c1CS(=O)(=O)c1ccccc1-2
N#Cc1ccc(C23CC4CC(CC(C4)C2)C3)[nH]c1=O
COC[C@@H]1CN(C(=O)c2cccc(OC(F)(F)F)c2)C[C@H]1C(N)=O
O[C@H]1[C@H](NCc2ccc(-c3ccccc3)cc2)[C@H]2CO[C@H](O2)[C@@H]1Oc1ccccc1
Cc1cccc(C(=O)NC2CCN(c3cnn(C)c(=O)c3)CC2)c1
OC(CN1CCC(Cc2ccc(F)cc2)CC1)c1ccc(Cl)cc1 (centres undefined)
COC1C(=O)N(c2cccc(F)c2)C12CCN(C(=O)c1cc3ccccc3[nH]1)CC2 (centres undefined)
O=C(NC1CC1)C1COC2(CCN(C(=O)c3ccc(F)cc3)CC2)N1C(=O)c1cccc(F)c1 (centres undefined)
COc1ccc(C(=O)Nc2cc(-c3nc4ccccc4s3)ccc2OC)cc1
Cc1cc(C)cc(N2C(N)=NC(N)=NC2c2cccc(Cl)c2)c1 (centres undefined)
CC(C)CN1C(=O)c2cccn2CC1C(=O)O (centres undefined)
Cc1ccccc1-n1c(SCC(=O)Nc2ccc(Cl)cc2Cl)nc(O)cc1=O
O=C(NC1CCCC1)N1CCC(Cc2nncn2CC2CC2)CC1
Cc1ccc(Oc2c(CCC(=O)NC(C)C)c(C)nn2-c2ccccc2)cc1

Potency, active:
CCCC(O)(c1ccc(Cl)cc1)C(CN1CCOCC1)c1ccc(Cl)cc1 (centres undefined) 4.73 µM
Cc1ccc(Cl)cc1N1CCN(C(=O)c2ccc3c(c2)N(Cc2ccccc2F)C(=O)c2ccccc2S3(=O)=O)CC1 5.31 µM
CCCCN(C(=O)c1cccc(S(=O)(=O)N(C)c2ccc(C)cc2)c1)c1c(N)n(CCCC)c(=O)[nH]c1=O 5.31 µM
O=C(Nc1ccc(Br)cc1)c1ccc(F)c(S(=O)(=O)NC2CCCCCC2)c1 9.44 µM
CC(C)COc1ccc(C(=O)N/C(=C\c2cccc([N+](=O)[O-])c2)C(=O)OC(C)C)cc1 0.531 µM
O=C1NC(=S)S/C1=C\C=C\c1ccc([N+](=O)[O-])o1 5.31 µM
CC(C)C(=O)Nc1oc(-c2ccccc2)cc1C#N 6.68 µM
COc1cnc(-c2ccccn2)nc1Sc1c(Cl)cccc1Cl 2.99 µM
CCOc1ccc(NC(=O)c2ccc(-c3nnc4ccc(NC(=O)C5CC5)cn34)cc2)cc1 2.99 µM
COc1ccc(C2C(C(=O)N3CCCCC3)CC(=O)N2c2ccc(OC)cc2)cc1 (centres undefined) 7.5 µM
COc1ccc(C2=C(Nc3ccccc3)c3ccccc3C2=O)cc1 9.44 µM
Cc1ccc(S(=O)(=O)c2nc(S(=O)(=O)c3ccccc3)sc2NCCCOC(C)C)cc1 0.596 µM
Cc1ccccc1NC(=O)Nc1ccc2nc(N3CCN(C)CC3)cc(C)c2c1 1.5 µM
CC(Oc1ccc(F)cc1)C(=O)Nc1cc(C(F)(F)F)ccc1-n1cncn1 (centres undefined) 1.68 µM
Cc1ncsc1CN1CCCN(Cc2ccncc2)C(c2ccccc2)CC(=O)NCC1 (centres undefined) 8.41 µM
CCCC(=O)NC(c1ccc(C(C)C)cc1)c1ccc2cccnc2c1O (centres undefined) 13.3 µM
